# Values joined by “and” are separate entries in the source; they are usually repeats but may differ in a detail not shown here. Equal entries are not always repeated. About 5,700 (2.6%) of roughly 220,000 compounds were called active. This list was built around the results that the source calls inconclusive (neither active nor inactive); the mix of calls is not that of the screen. The call rests on the fitted dose curve; in most records, active means well fitted inhibition curve with a large enough effect; inconclusive means small, poorly fitted or top-dose-only effect; inactive means no such curve, though single readings can be large or run the other way. A potency beside an inconclusive call is a rough fit, not a confirmed value.
# Biological target: Lysine-specific demethylase 5B (Homo sapiens) (UniProt Q9UGL1)
# Test: Primary screen for KDM5B Histone Demethylases FDH-coupled qHTS; further: nearly all actives have a fitted effect of over 70% in size; on activity change, negative = inhibition: 0% is about no effect
# Conditions: FDH-coupled NADH fluorescence (FDH is formaldehyde dehydrogenase); activity change, negative = inhibition: at 57.7 µM (top of the series) unless noted
# Summary of the method: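 KDM5BΔAP (200 nM final) in 50 mM HEPES pH 7.5, 0.01% Tween-20 was preincubated 10 min at RT with compound over a concentration range. Substrate mix (H3K4me3 12.5 µM, α-KG 25 µM, Fe²⁺, ascorbate, NAD⁺, FDH) was added, and NADH fluorescence change over 30 min gave dose-response curves.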
# Potency means the concentration at half of the fitted maximal effect; tags describe the fitted curve by direction and shape.
# UniProt Q9UGL1, sequence (Q9UGL1 whole entry, looked up): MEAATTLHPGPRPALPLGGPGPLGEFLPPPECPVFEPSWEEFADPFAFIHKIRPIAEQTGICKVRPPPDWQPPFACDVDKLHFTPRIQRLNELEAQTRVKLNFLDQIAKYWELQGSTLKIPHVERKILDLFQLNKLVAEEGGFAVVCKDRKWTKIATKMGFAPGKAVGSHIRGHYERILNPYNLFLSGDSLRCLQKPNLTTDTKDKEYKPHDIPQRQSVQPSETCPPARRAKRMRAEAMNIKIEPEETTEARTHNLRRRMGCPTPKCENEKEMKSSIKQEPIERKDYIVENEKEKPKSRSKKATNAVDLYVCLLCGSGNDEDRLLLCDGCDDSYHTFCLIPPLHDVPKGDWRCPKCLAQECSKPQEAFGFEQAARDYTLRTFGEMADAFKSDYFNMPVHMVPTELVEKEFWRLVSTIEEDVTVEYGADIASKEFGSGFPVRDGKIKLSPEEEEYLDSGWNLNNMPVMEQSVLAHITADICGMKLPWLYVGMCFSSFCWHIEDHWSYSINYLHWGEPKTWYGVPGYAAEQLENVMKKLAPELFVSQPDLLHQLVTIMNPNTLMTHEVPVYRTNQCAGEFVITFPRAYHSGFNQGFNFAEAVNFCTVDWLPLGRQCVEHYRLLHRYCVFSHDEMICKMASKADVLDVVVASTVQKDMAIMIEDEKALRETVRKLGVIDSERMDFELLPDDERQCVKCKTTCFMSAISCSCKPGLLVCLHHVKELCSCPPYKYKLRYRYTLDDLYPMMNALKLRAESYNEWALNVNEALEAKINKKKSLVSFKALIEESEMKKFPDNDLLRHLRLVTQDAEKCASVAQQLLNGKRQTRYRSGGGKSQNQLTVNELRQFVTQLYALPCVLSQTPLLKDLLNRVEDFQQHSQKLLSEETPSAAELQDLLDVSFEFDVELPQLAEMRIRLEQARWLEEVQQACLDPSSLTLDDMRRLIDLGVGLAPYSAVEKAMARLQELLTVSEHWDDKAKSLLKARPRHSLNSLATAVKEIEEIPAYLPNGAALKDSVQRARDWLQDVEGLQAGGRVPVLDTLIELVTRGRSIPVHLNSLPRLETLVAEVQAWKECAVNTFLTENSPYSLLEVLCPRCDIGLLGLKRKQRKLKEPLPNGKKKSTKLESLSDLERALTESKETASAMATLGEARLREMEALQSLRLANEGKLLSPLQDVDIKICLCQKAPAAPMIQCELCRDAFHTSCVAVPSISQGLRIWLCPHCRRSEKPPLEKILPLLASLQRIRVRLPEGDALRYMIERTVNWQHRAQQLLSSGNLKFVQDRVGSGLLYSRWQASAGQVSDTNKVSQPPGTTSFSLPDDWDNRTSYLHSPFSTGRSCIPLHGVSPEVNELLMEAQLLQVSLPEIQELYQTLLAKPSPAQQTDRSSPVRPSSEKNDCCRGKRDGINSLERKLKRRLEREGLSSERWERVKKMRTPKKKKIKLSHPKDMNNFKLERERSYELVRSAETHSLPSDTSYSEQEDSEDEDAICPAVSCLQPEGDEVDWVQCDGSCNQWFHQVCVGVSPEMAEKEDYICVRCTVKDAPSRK
SMILES,"activity change, negative = inhibition",Potency
COc1ccc(C(=O)ON=C2c3ccccc3-c3ccccc32)cc1,inactive: 26%,
Cc1oc2cc(OS(C)(=O)=O)ccc2c(=O)c1Oc1ccccc1Br,inactive: -10%,
CC1=C(c2ccc(Cl)cc2)[N+](=O)C(C)(c2ccccc2)N1[O-] (centres undefined),,"inconclusive: 28.2 µM [inhibitor, partial curve, poor fit]"
CCCCN(CCCC)c1nc(-c2ccccc2)nc2ccccc12,,"inconclusive: 14.1 µM [inhibitor, partial curve, poor fit]"
Nc1ccc(/C=C/c2ccc([N+](=O)[O-])cc2)cc1,inactive: 20.9%,
C#CCOc1ccc(/C=C2/C(=O)NN(c3ccc(F)cc3)C2=O)cc1OC,,"inconclusive: 39.8 µM [inhibitor, single point]"
O=[N+]([O-])c1ccc(C(c2sc3nc(-c4ccco4)nn3c2O)N2CCC3(CC2)OCCO3)cc1 (centres undefined),,"inconclusive: 15.8 µM [inhibitor, partial curve, poor fit]"
COc1ccccc1-c1c(C)oc2cc(O)ccc2c1=O,,"inconclusive: 25.1 µM [inhibitor, partial curve, poor fit]"
CCOc1ccc(CCNC(=O)c2cnc3c(-c4ccccc4)c(C)nn3c2C)cc1OCC,,"inconclusive: 8.91 µM [inhibitor, partial curve, poor fit]"
Cc1ccc(NC(=O)Cc2nnc(SCC(=O)c3ccc(C#N)cc3)n2C)cc1,inactive: 16.1%,
CCc1ccc(CNC(=O)C2CCN(c3nnc(-n4c(C)ccc4C)s3)CC2)cc1,inconclusive: -35.7% [inhibitor],
COc1cccc2c(Nc3cccc(O)c3)cc(C)nc12,inactive: 3.6%,
CN1CCCCCCN(S(=O)(=O)c2cccs2)CCC1=O,inactive: 17.3%,
CN(Cc1ccccc1N1CCCCC1)C(=O)c1cccc(S(=O)(=O)N2CCOCC2)c1,inactive: 3.87%,
Cc1cccc(-c2nnc(SCCC(=O)O)o2)c1,,"inconclusive: 2.82 µM [inhibitor, partial curve, poor fit]"
CCNC(=O)CCc1cc2ccc(C)cc2[nH]c1=O,,"inconclusive: 28.2 µM [inhibitor, single point]"
O=C1NC[C@H]2CN(Cc3cccc(OC(F)(F)F)c3)CCN12,inactive: -22.3% [at 86.2 µM],
CN1CC(=O)N(C2CCNC2)Cc2c(NCC3CCCCC3)ncnc21 (centres undefined),,"inconclusive: 63.1 µM [inhibitor, partial curve, poor fit]"
Cc1ccc(NC(=O)C(Sc2ccc(S(=O)(=O)N3CCCC3)cn2)c2ccccc2)cc1 (centres undefined),inactive: 2.13%,
COc1cc(CNCCSc2nnnn2C)ccc1OCc1c(F)cccc1Cl,,"inconclusive: 22.4 µM [inhibitor, single point]"
Cc1ccc(C)c(NC(=O)CCc2c(C)[nH]n(-c3ccc(F)cc3)c2=O)c1,inactive: 16.6%,
Cc1ccc(SCCNC(=S)Nc2ccc(Nc3ccccc3)cc2)cc1,inactive: -20%,
O=C(c1cnccn1)N1CCCCCCn2c(nnc2-c2ccc(F)cc2)CC1,inactive: -1.36%,

SMILES,"activity change, negative = inhibition",Potency
Cc1cnc(NC(=O)c2[nH]c3c(c2C)C(=O)CCC3)s1,,"inconclusive: 28.2 µM [inhibitor, partial curve, poor fit]"
CCN(Cc1cccc(F)c1)C(=O)COc1ccc2ccc(=O)oc2c1,,"inconclusive: 28.2 µM [inhibitor, partial curve, poor fit]"
COc1ccc(CCC(=O)NCc2ccc3c(c2)CCN3C(=O)c2cccc(C)c2)cc1,,"inconclusive: 44.7 µM [inhibitor, single point]"
Cc1ccnc2nc(C(=O)OC(C)C(=O)c3c[nH]c4ccccc34)nn12 (centres undefined),inactive: 0.539%,
CCOc1ccccc1Nc1ccc2cc(S(=O)(=O)N3CCCCC3)ccc2n1,,"inconclusive: 31.6 µM [inhibitor, partial curve, poor fit]"
O=C(NCCc1ccccc1)c1cnc2sc(N3CCOCC3)nn2c1=O,,"inconclusive: 3.98 µM [inhibitor, full curve, poor fit]"
Cc1ccc(-c2cc(C(=O)Nc3nncs3)c3ccccc3n2)cc1,,"inconclusive: 22.4 µM [inhibitor, partial curve, poor fit]"
O=C(c1cccnc1)N1CCC(Cc2nc(C3CCOCC3)no2)CC1,inactive: -22.2%,
COc1ccc(S(=O)(=O)N2CCC(C(=O)NCc3cccnc3)CC2)cc1OC,inactive: 2.23%,
CCn1ccc(C(=O)N2CCC(N3C(=O)C(OCC4CC4)C34CCOCC4)CC2)n1 (centres undefined),inactive: -14%,
CCOc1ccc(C(=O)Nc2ccc3nc(SCC(=O)N4CCOCC4)sc3c2)cc1,,"inconclusive: 0.891 µM [inhibitor, full curve, poor fit]"
Cc1ccc2[nH]c(C(F)(F)F)cc(=O)c2c1,,"inconclusive: 28.2 µM [inhibitor, partial curve, poor fit]"
CCN(Cc1cccc(NC(=O)c2ccc(C3SCCCS3)cc2)c1)C(=O)C(F)(F)F,inactive: -2.92%,
COc1ccc(N(Cc2cccs2)C(=O)Cn2nnc(-c3ccccc3C)n2)cc1,inactive: -6.95%,
COC[C@H]1NC(=O)CC[C@H]1C(=O)NCCCN1CCc2ccccc2C1,,"inconclusive: 20 µM [inhibitor, partial curve, poor fit]"
CCN1CCN(C(=O)c2ccc3c(c2)N(Cc2cc(C)ccc2C)C(=O)c2ccccc2S3(=O)=O)CC1,inactive: -22%,
O=C(NC(c1ccccc1)c1cc2ccccc2o1)C1CCOCC1 (centres undefined),inactive: 21.5%,
CCCNc1ccc2nnc(CC)n2n1,,"inconclusive: 35.5 µM [inhibitor, partial curve, poor fit]"
CCC1CCc2c(sc(NC(=O)C(C)C)c2C#N)C1 (centres undefined),inactive: -25.4%,
Cc1ccccc1CC(=O)NCc1nnc2c(-c3nc(C(C)C)no3)cccn12,,active: 22.4 µM
O=C(Nc1cccc(F)c1)N1Cc2[nH]cnc2C[C@H]1c1nc(-c2ccc(F)c(Cl)c2)no1,inactive: 0.15%,
Cc1cc2cc(-c3c(C)noc3C)nc(-c3ccc([S+](C)(=O)[O-])cc3)c2o1,,active: 35.5 µM
O=C(/C=C/c1ccco1)Nc1ccc(SC2CCCC2)cc1,inactive: -30.7%,

SMILES,"activity change, negative = inhibition",Potency
COc1ccc(-c2cc(C(=O)NCc3cccnc3)c3c(c2)N(C)CCO3)cn1,,"inconclusive: 28.2 µM [inhibitor, partial curve, poor fit]"
CC(C)n1cc2cc(C(=O)NCc3ccc(N4CCOCC4)cc3)sc2c1,,"inconclusive: 15.8 µM [inhibitor, partial curve, poor fit]"
Cc1noc([C@H]2CCN(C(=O)Nc3ccc4c(c3)OCCO4)C[C@H]2NC(=O)C2CC2)n1,inactive: 5.18%,
Cc1ccc(CCNC(=O)c2ccc(Cn3ccn4nc5c(c4c3=O)CCCC5)cc2)cc1,,"inconclusive: 39.8 µM [inhibitor, single point]"
COc1ccc(C(=O)Nc2ccc(-c3cc(C(F)(F)F)nn3-c3ccccc3)cc2)cc1OC,,"inconclusive: 25.1 µM [inhibitor, partial curve, poor fit]"
O=C(C1CCCCC1)N1CCC(c2nc3ccccc3o2)CC1,inactive: 12.2%,
COc1cccc(N2CCN(c3ncnc4onc(-c5ccc(Cl)cc5)c34)CC2)c1,,"inconclusive: 25.1 µM [inhibitor, partial curve, poor fit]"
CCCCNC(=O)Cc1csc2nc(C)c(-c3cc(C)n(-c4ccccc4CC)n3)c(=O)n12,,active: 31.6 µM
Cc1ccc(C)c(Nc2nn3c(=O)c4ccc(C(=O)NCc5cccs5)cc4nc3s2)c1,,"inconclusive: 28.2 µM [inhibitor, partial curve, poor fit]"
C=CCNc1oc(/C=C/c2cccs2)nc1C#N,,"inconclusive: 35.5 µM [inhibitor, partial curve, poor fit]"
Fc1cccc(-c2cc3c(cn2)CN(Cc2ccncc2)CCN3)c1,,"inconclusive: 31.6 µM [inhibitor, single point]"
CCOc1cc2c(cc1CNC(=O)c1ccc(Cl)c(S(N)(=O)=O)c1)OC(C)C2 (centres undefined),inactive: 8.79%,
Cc1ccc(S(=O)(=O)/N=C(\N)Nc2nc(C)c3cc(C)ccc3n2)cc1,,"inconclusive: 22.4 µM [inhibitor, single point]"
COc1ccc(C(=O)N2CC[C@@H](CC(=O)O)[C@@H](CCN3CCN(c4ccccn4)CC3)C2)cc1,,"inconclusive: 14.1 µM [inhibitor, partial curve]"
Cc1cccc(C(=O)NC(C)C2CCCO2)c1 (centres undefined),inactive: -6.07%,
COCCOCc1nc(C2CCN(C(=O)Nc3ccc(OC)c(F)c3)CC2)no1,inactive: 16.2%,
O=C(Cn1c(=O)n(-c2ccccc2)c(=O)c2sc3ccccc3c21)NC1CCCC1,,"inconclusive: 8.91 µM [inhibitor, partial curve, poor fit]"
Cc1cn2nc(C(=O)NCc3ccc(F)cc3F)cc2c(N2CCSCC2)n1,,"inconclusive: 31.6 µM [inhibitor, partial curve, poor fit]"
CCOc1ccc(-c2cc(C(=O)O)c3cc(Br)ccc3n2)cc1,,"inconclusive: 20 µM [inhibitor, partial curve, poor fit] and inconclusive: 8.91 µM [inhibitor, partial curve, poor fit]"
COc1ccc(CN(Cc2ccccc2)Cc2cc(=O)n3cc(C)sc3n2)cc1OC,,"inconclusive: 28.2 µM [inhibitor, single point]"
Cc1ccc(-n2c(=O)c3ccccc3n(CC(=O)Nc3cccc(C(F)(F)F)c3)c2=O)cc1,,"inconclusive: 1.41 µM [inhibitor, full curve, poor fit]"
CCC(=O)Nc1ccc(C(C)NCc2ccsc2)cc1 (centres undefined),inactive: 12%,
Cc1nc2cc(NC(=O)CC(C)(C(=O)O)C(C)C)ccc2o1 (centres undefined),,"inconclusive: 35.5 µM [inhibitor, partial curve, poor fit]"

# — PubChem BioAssay AID1347165 (National Center for Advancing Translational Sciences (NCATS), 2019)
